The values that follow come from ChEMBL document CHEMBL4888484, “Replenishing the malaria drug discovery pipeline: Screening and hit evaluation of the MMV Hit Generation Library 1 (HGL1) against asexual blood stage Plasmodium falciparum ,using a nano luciferase reporter read-out” (2022).

Hit rate of the full screen: of about 150,000 compounds, about 540 (0.36%) showed an effect of 50% or more. Some of the results follow.

The test system of this experiment is Plasmodium falciparum. Briefly: Primary screen in NF54 nanoGlo assay, in single point, at 2uM, 72h; a lower Z score goes with more inhibition. It is filed as functional, Erythrocyte. Particulars: timepoint 72 hour.
For `CCOC(=O)c1cn(C)nc1C(F)F`, the “% Inhibition” value is -12% and the Z score came out at 1.17.
The like results for `N#Cc1cccc(NCc2nnn(CC(F)(F)F)n2)c1` were, in that order, -28% and 3.24.
The like results for `Cc1nc[nH]c1CN1C[C@H]2CC[C@@H](C1)N(Cc1c(Cl)cncc1Cl)C2` were, in that order, -4% and 0.55.
The like results for `O=C1CC2(CCN(c3nccc4ccccc34)CC2)CN1` were, in that order, 7% and -1.01.
On to `O=C(N[C@@H]1CN(C(=O)Cc2c[nH]c3ccccc23)C[C@H]1CO)c1ccccc1`, for which the “% Inhibition” value was -2% and the Z score came to 0.33.
The like results for `COc1ccc([C@H](C)NC(=O)c2cnc(C)cc2O)cc1` were, in that order, -5% and 0.66.
For `CC[C@@H](c1ccncc1)N(C)C(=O)NCc1ccc(OC(C)(C)C)nc1`, in that order: 2% and -0.29.
The like results for `CCc1ccc2ncc(C(=O)c3ccc(Cl)cc3)c(O)c2c1` were, in that order, 48% and -6.47.
Turning to `Cc1ccc(NC(=O)CN2C(=O)CCCc3cc(S(=O)(=O)N4CCC(C)CC4)ccc32)c(C)c1`, the “% Inhibition” value is on record as -15% and the Z score was found to be 1.94.
For `CC(C)(C)c1ncc(N2C(=O)C3CC4CCCCC4N3C2=O)cn1` (centres undefined), in that order: 0% and 0.02.
On to `CO[C@@H](CNC(=O)Cc1ccsc1)c1ccc(Cl)s1`, for which the “% Inhibition” value is -24% and the Z score came out at 3.06.
The like results for `O=C(CCc1cc2n(n1)CCN(C(=O)c1ccc[nH]1)C2)N1CCCC1` were, in that order, -8% and 1.09.
For `COC(=O)c1nc(NC(=O)C[C@@H]2NC(=O)N(Cc3ccccc3)C2=O)sc1C(C)C`, in that order: -12% and 1.89.
For `Cc1cccc(CN2CCC[C@H]2C(=O)Nc2ccc(-c3cscn3)cc2)n1`, in that order: -2% and 0.29.
Regarding `Cc1ccccc1-c1noc(-c2nn(-c3ccccc3)c(=O)c3ccccc23)n1`, the “% Inhibition” value amounted to 16% and the Z score was -1.86.
Turning to `CNC(=O)C1(C)CCN(c2ncnc3c2ncn3CC(O)C2CCCO2)C1` (centres undefined), the “% Inhibition” value was -23% and the Z score came to 3.34.
For `Cc1noc(C)c1C(=O)NC1CCCCC1Cc1ccco1` (centres undefined), in that order: -8% and 1.11.
`Cc1ccc(NC(=O)[C@@H]2CNCCN2C(=O)c2occc2C)cn1`: the “% Inhibition” value is recorded as 7% and the Z score is -1.4.
For `Cc1oc(-c2cc(F)ccc2F)nc1CN1CCCC[C@H]1c1nc2cc(F)ccc2[nH]1`, in that order: -3% and 0.58.
For `Cc1cc(C)n(-c2ccnc(N3CCN(c4ccccc4)CC3)n2)n1`, the “% Inhibition” value was -16% and the Z score stood at 1.7.
For `CON(C)C(=O)CCN(C)Cc1nccn1C(F)F`, in that order: -2% and 0.3.
The like results for `CCc1c(C)nn(C)c1NC(=O)CCc1cccnc1` were, in that order, -16% and 3.11.
Turning to `COC(=O)c1ncn(Cc2nn(-c3ccc(F)cc3)c3c2CCC3)n1`, the “% Inhibition” value was -3% and the Z score was found to be 0.52.
The like results for `CCn1ncc2cc(C(=O)N3CC(=O)N(CC4CC4)C3)c(C)nc21` were, in that order, -14% and 1.22.
The like results for `O=C(NCCC1=CCCCCC1)c1cc2[nH]cnc2cc1F` were, in that order, -30% and 3.17.
For the compound `CC1CCN(C(=O)Cn2cc(C(=O)C3CCCCC3)c3ccccc32)CC1`, the “% Inhibition” value is on record as -5% and the Z score was determined as 0.58.
The like results for `C[C@H]1COCCN1C(=O)NCc1nc2cccc(Cl)c2n1C` were, in that order, -9% and 1.72.
`CC#CCNC(=O)N1CCN(CC(C)(C)O)C[C@@H]1C`: the “% Inhibition” value came out at 23% and the Z score is listed as -2.91.
The like results for `CCCNC(=NC)NCCCc1nc(C)cs1` were, in that order, 30% and -3.35.
The like results for `COc1ccc(CNC(=O)c2ccc(-n3c(C)cc4c3CC[C@H](C)C4)cc2)cc1` were, in that order, 3% and -0.37.
The like results for `Cc1ccc(C)c([C@@H]2CCCN2C(=O)Cc2ccon2)c1` were, in that order, -8% and 1.32.
As for `Cc1cc(NC(=O)c2ccco2)c(C)cc1NC(=O)c1ccco1`, the “% Inhibition” value is recorded as -11% and the Z score was 2.01.
For the compound `COc1ccc(NC(=O)N2CCC(CC3CCC(C)CC3)CC2)cc1OC` (centres undefined), the “% Inhibition” value was -5% and the Z score is given as 0.9.
For `CC(C)CN1C(=O)CC[C@@H](C(=O)NCCN2CCN(c3ccccc3F)CC2)[C@H]1C`, in that order: -13% and 1.74.
The like results for `CC(C)(C(=O)NCCOCCO)[C@H]1CCC[C@@H](C(F)(F)F)N1` were, in that order, -6% and 0.93.
For `CCn1cc(NC(=O)C(=O)NCc2ccc(OC)cc2)cn1`, in that order: -15% and 2.47.
Consider `CC(C)(C)OC(=O)N1CCc2ncn(Cc3ccc(F)cc3)c(=O)c2C1`, for which the “% Inhibition” value is recorded as 37% and the Z score is on record as -4.71.
The like results for `CC(C)c1nnc(CNC(=O)[C@H]2CCN(Cc3ccccc3)C2)[nH]1` were, in that order, 1% and -0.11.
For `Cc1nc(CCNC(=O)[C@@H]2CC[C@H](C(=O)O)C2)sc1Cl`, in that order: -3% and 0.4.
The like results for `CS(=O)(=O)N1CCN(c2ccc(-c3ccncc3)nn2)CC1` were, in that order, -14% and 2.11.
Regarding `CN(C)c1ccc(CNC(=O)C2CCN(c3cncnc3N(C)C)CC2)cc1`, the “% Inhibition” value is on record as -5% and the Z score was found to be 1.
The like results for `O=C1C[C@H](N2C(=O)c3ccccc3C2=O)C(=O)O1` were, in that order, -3% and 0.41.
